Measured values published in PubChem BioAssay AID504339 (National Center for Advancing Translational Sciences (NCATS), 2011).
Several values for one entry are separate records, joined by “and”; a condition that tells them apart may be missing. Equal values may be shown once. Hit rate of the full screen: of about 390,000 compounds, about 17,000 (4.4%) were called active. Inconclusive results, whose numbers are uncertain, are shown with a selection of clear calls. The call rests on the fitted dose curve; in most records, active means well fitted inhibition curve with a large enough effect; inconclusive means small, poorly fitted or top-dose-only effect; inactive means no such curve, though single readings can be large or run the other way. Potencies of inconclusive entries are doubtful fits and often do not repeat.

Biological target: Lysine-specific demethylase 4A (Homo sapiens) (UniProt O75164)
Sequence of UniProt O75164 (O75164 whole entry, looked up, the tested form may be a part): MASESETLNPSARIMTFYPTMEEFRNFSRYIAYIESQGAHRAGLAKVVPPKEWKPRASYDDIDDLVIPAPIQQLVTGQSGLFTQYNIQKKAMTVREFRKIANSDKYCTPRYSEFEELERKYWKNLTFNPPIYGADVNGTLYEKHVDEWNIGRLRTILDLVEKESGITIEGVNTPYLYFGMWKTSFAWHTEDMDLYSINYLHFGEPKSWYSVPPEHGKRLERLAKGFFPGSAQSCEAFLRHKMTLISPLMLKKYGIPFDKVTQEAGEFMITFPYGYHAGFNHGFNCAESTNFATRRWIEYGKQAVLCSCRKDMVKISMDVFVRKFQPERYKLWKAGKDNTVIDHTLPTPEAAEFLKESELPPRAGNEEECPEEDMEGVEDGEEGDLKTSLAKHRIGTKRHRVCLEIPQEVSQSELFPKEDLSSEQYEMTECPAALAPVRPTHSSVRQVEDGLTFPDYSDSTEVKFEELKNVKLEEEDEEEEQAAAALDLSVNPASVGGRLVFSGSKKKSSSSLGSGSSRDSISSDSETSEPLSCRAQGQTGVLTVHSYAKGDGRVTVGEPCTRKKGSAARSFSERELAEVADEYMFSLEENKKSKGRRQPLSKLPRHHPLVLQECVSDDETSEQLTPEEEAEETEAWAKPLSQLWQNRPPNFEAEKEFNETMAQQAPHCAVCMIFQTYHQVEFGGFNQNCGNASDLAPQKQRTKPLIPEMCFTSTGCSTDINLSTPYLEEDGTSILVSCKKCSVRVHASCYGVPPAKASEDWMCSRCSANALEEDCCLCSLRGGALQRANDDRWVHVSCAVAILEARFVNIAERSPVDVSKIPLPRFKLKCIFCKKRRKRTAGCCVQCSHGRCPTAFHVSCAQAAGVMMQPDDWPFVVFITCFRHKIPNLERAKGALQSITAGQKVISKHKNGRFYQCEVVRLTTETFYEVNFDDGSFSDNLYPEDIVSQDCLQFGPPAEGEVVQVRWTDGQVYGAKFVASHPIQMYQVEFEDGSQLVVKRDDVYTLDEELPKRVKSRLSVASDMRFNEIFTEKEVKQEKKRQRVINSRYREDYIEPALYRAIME
Test: qHTS Assay for Inhibitors of JMJD2A-Tudor Domain; further: nearly all actives have a fitted effect of over 50% in size
Details: AlphaScreen JMJD2A-Tudor / H3K4me3 peptide binding; activity change, negative = inhibition: at 114 µM (top of the series)
On the % scale 0 is the no-effect control and ±100 the full control effect; potency means the concentration at half of the fitted maximal effect; tags describe the fitted curve by direction and shape.

Potency, active:
O=c1c2c3c(sc2n2c(=S)[nH]nc2n1-c1ccccc1)CCC3 3.16 µM
COc1ccc(C/C(C)=N/NC(=O)c2ccncc2)cc1 10 µM
COc1cccc(CN2CCN(S(=O)(=O)c3ccc(NC(C)=O)cc3)CC2)c1OC 2.51 µM
COCCCNC(=S)NNC(=S)Nc1cccc(Cl)c1 3.16 µM
Brc1ccccc1C1Nc2cccc3cccc(c23)N1 50.1 µM
C#CCOCCOCCOCCNc1nc(N2CCN(C(=O)[C@H](CCCCN)n3cc([C@@H](N)CO)nn3)CC2)nc(N2CCN(C(=O)[C@H](Cc3ccc(O)cc3)n3cc([C@@H](N)CC(C)C)nn3)CC2)n1 56.2 µM
OC(Cn1cnnc1)c1ccccc1 (stereo not given) 6.31 µM
COc1cc(CNCc2ccc(OC)c3ccccc23)cc(OC)c1OC 25.1 µM

Potency, inactive:
CCOCCCn1c(SCC(=O)Nc2ccccc2OC)nc2c(oc3ccccc32)c1=O
COc1ccc(C(=O)Nc2ccccc2N2CCCC2)cc1S(=O)(=O)N1CCOCC1
COc1ccc(-c2noc(C3CC(=O)N(c4ccc5c(c4)OCCO5)C3)n2)c(OC)c1 (stereo not given)
O=C(Nc1cccc(N2C(=O)C3CCCCC3C2=O)c1)c1ccccc1 (stereo not given)
COC(=O)c1c(NC(=O)/C(C#N)=C/c2ccc(OC)cc2)sc2c1C(C(=O)OC)CC2 (stereo not given)
CNS(=O)(=O)c1cccc(C(=O)OCC(=O)c2ccc3c(c2)OCCO3)c1
COCCCNC(=S)Nc1cc2oc3ccccc3c2cc1OC
COc1cccc(NC(=O)N2CCC(CN3CCOCC3)CC2)c1
CC1CCN(C(=O)c2ccc(NC(=O)c3nsc4ccccc34)cc2)CC1
O=C(NCc1ccccn1)c1ccc(OC2CCN(Cc3cccs3)CC2)cc1
COC(=O)c1c(NC(=S)Nc2ccc(CC(=O)O)cc2)sc(C)c1C
COc1ccc(C(=O)NC=C2C(=O)OC(C)(C)OC2=O)cc1
CCOc1cc(CNC(C)(C)CO)cc(Br)c1OCc1ccc(Cl)cc1Cl
CCCCNC(=O)C(CC)Sc1nnc(-c2cccc(F)c2)c(-c2cccc(F)c2)n1 (stereo not given)
CCOC(=O)c1ccc(CN(Cc2ccccc2)S(=O)(=O)c2ccc(C)cc2)cc1
CCOC(=O)c1ccc(NC(=O)CN(c2ccc(C)cc2)S(=O)(=O)c2c(C)noc2C)cc1
COc1ccc(S(=O)(=O)N(C)CC(=O)N2CCN(c3ccccc3)CC2)cc1
CC(=O)c1cccc(NC(=O)CC2S/C(=N/N=C3CCCCCC3)NC2=O)c1 (stereo not given)
O=C(C1CCC1)N1CCc2cc(S(=O)(=O)NCCN3CCN(c4ccccc4F)CC3)ccc21
CC(Nc1ccc(-c2nc(-c3ccncc3)no2)cc1[N+](=O)[O-])c1ccccc1 (stereo not given)
CCOc1ccc(C(=O)NCC(C)C)cc1
CN(C)C(CNC(=O)C1CCN(S(=O)(=O)c2cccc(Cl)c2Cl)CC1)c1ccccc1 (stereo not given)
O=C(Nc1cccc(Cl)c1)N1CCOCC1
CCOCCn1ccc2c(OCC(=O)Nc3ccccc3OC)cccc2c1=O

Potency, inconclusive:
NC(=O)c1nn(-c2cccc(Cl)c2)c(=O)cc1O 89.1 µM [inhibitor, partial curve]
Cc1ccc(NC(=O)CSc2nc(-c3ccco3)nc3cc(=O)[nH]n23)c(Cl)c1 56.2 µM [inhibitor, partial curve, poor fit]
OCCCCNc1cccc2ccccc12 56.2 µM [inhibitor, partial curve]
CCCOc1ccc(C2CC(=O)NC2=O)cc1 (stereo not given) 14.1 µM [inhibitor, full curve]
COc1cc(C(=O)NCCSc2c(C)[nH]c3ccccc23)cc(OC)c1OC 89.1 µM [inhibitor, partial curve]
CCOc1ccc2nc(N(CCCN(C)C)C(=O)c3ccc4c(c3)CCCC4)sc2c1 39.8 µM [inhibitor, partial curve]
O=C(c1ccc(CN2CCc3ccccc3C2)cc1)N1CCN(c2ccc(F)cc2)CC1 22.4 µM [inhibitor, full curve]
COc1cccc(C(c2c(N)[nH]c(=S)[nH]c2=O)c2c(N)[nH]c(=S)[nH]c2=O)c1 44.7 µM [inhibitor, partial curve, poor fit]
CCN(CC)C(=O)c1[nH]cnc1C(=O)N[C@@H](C)C(=O)OCc1ccccc1 31.6 µM [inhibitor, full curve]
N#C/C(=C\c1ccc(O)c(O)c1)S(=O)(=O)c1ccccc1 0.794 µM [inhibitor, full curve, poor fit]
CCOC(=O)C1CCCCN1Cc1cccc(C(F)(F)F)c1 (stereo not given) 89.1 µM [inhibitor, single point]
CCN(CC)c1ccc(NC(=O)c2ccc(=O)[nH]c2)cc1S(=O)(=O)Nc1ccc(OC)cc1 50.1 µM [inhibitor, partial curve]
CC(C)(C)C(=O)N1CCN(c2ccc([N+](=O)[O-])c(-n3nc(-c4ccccc4)c4ccccc4c3=O)c2)CC1 10 µM [inhibitor, full curve, poor fit]
COc1ccc(CCNC(=O)CCCOc2ccc(C)cc2)cc1OC 14.1 µM [inhibitor, partial curve]
NS(=O)(=O)c1ccc(Nc2nc3ccccc3nc2NS(=O)(=O)c2cccc([N+](=O)[O-])c2)cc1 56.2 µM [inhibitor, partial curve]
c1ccc(Cn2nnnc2C(c2cccs2)N2CCc3ccccc3C2)cc1 (stereo not given) 56.2 µM [inhibitor, partial curve]
C=C(C)CSc1nnc2n(C)c(=O)c3c4c(sc3n12)CCC4 89.1 µM [inhibitor, single point]
CN(C)S(=O)(=O)c1ccc(-c2csc(N/N=C/c3ccc(O)cc3)n2)cc1 63.1 µM [inhibitor, partial curve, poor fit]
CCN1CCN(c2cc(C)c3cc(NC(=O)c4cc(OC)cc(OC)c4)ccc3n2)CC1 56.2 µM [inhibitor, partial curve] and 100 µM [inhibitor, single point]
CCN1CCN(CC(=O)c2c[nH]c3ccc(C)cc23)CC1 3.98 µM [inhibitor, full curve]
COc1ccc(C(C(=O)NC2CCCCC2)N(C(=O)Cc2c[nH]c3ccccc23)c2ccccc2C)cc1OC (stereo not given) 20 µM [inhibitor, partial curve]
Cc1ccc(C(=O)Nc2cccc(C(F)(F)F)c2)cc1Nc1ccccn1 79.4 µM [inhibitor, partial curve]
Cc1cccc(C(=O)OC(C)C(=O)NCC2CCCCC2)c1O (stereo not given) 3.55 µM [inhibitor, single point]
CC(C)(C)OC(=O)NCCCC[C@H](NC(=O)c1[nH]cnc1C(=O)N[C@@H](Cc1ccccc1)C(=O)OCc1ccccc1)C(=O)OC(C)(C)C 22.4 µM [inhibitor, full curve]
Cc1[nH]n(-c2ccccc2)c(=O)c1/C=C1\C=NN=C1c1ccccc1 15.8 µM [inhibitor, full curve]
O=[N+]([O-])c1cccc(/C=N\N=C2c3ccccc3-c3ccccc32)c1O 17.8 µM [inhibitor, partial curve]
Cc1cccc(-c2ccc3c(c2)C2CC3CCN2Cc2ccc3c(c2)OCO3)c1 (stereo not given) 56.2 µM [inhibitor, partial curve]
CN1c2ccccc2C(O)=C(C(=S)Nc2ccc(F)c(Cl)c2)S1(=O)=O 89.1 µM [inhibitor, single point]
Cc1[nH]c(-c2ccc(F)cc2)cc1C(=O)N1CCN(c2ccc(Cl)cc2)CC1 44.7 µM [inhibitor, partial curve]
CC(=O)C(Sc1nnnn1-c1ccccc1)C(C)=O 89.1 µM [inhibitor, single point]
Cc1ccc(C)c(OCCCCCn2ccnc2)c1 50.1 µM [inhibitor, partial curve]
O=C(Nc1cc(F)ccc1F)C1CCN(c2nc3ccccc3n3cccc23)CC1 44.7 µM [inhibitor, partial curve]
CCOC(=O)N1CCN(S(=O)(=O)c2ccc3[nH]cc(C(=O)O)c(=O)c3c2)CC1 56.2 µM [inhibitor, partial curve]
CC1(C)OC2OC(C(=O)N/N=C/c3cc(Br)ccc3O)C3OC(C)(C)OC3C2O1 (stereo not given) 79.4 µM [inhibitor, single point]
CC(C)Oc1ccc(CC(=O)NNC(=S)Nc2ccc(Br)cc2)cc1 0.631 µM [inhibitor, full curve]
O=c1c2ccccc2[nH]c2ccc(O)cc12 44.7 µM [inhibitor, partial curve]
Cc1cc(N2C(=O)C3C4C=CC(C4)C3C2=O)ccc1NC(=O)c1cccs1 (stereo not given) 79.4 µM [inhibitor, partial curve]

Activity change, negative = inhibition, inactive:
C=CCNC(=S)NNc1nc(Nc2ccccc2)nc(N2CCCCC2)n1 -18% [at 11.4 µM]
